Experimental data published in PubChem BioAssay AID1508624 (National Center for Advancing Translational Sciences (NCATS), 2021).
The campaign covered roughly 48,000 compounds. About 120 (0.25%) were called active. Not shown: some 4% with an inconclusive outcome. Calls come from the whole dose curve; as a rule, active = well fitted activation curve with a large enough effect; inconclusive = small, poorly fitted or top-dose-only effect, or another doubt; inactive = no such curve, though single readings can be large or run the other way. This is one part of the list.

Assay: Primary qHTS for Identification of Small Molecule Activators of Huntingtin-Antisense Promoter Activity; note: nearly all actives have a fitted effect of over 55% in size
Details: HEK293 HTT-AS promoter firefly luciferase reporter, 24 h; series mostly up to 57.5 µM; activity change, positive = activation: at the top concentration
Outline: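 HEK293 Fluc reporter, 2,500 cells/well, 24 h pre-culture; cpds up to 57.5 uM final, 24 h 37 degrees C; Dual-Glo, 10 min RT; normalized vehicle = 0%, zero RLU = -100%.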

Activity change, positive = activation, inactive:
CCOc1ccccc1NC(=O)Cn1c(=O)n(-c2ccccc2)c(=O)c2c1c1cc(C)ccc1n2C -5.54%
CCCS(=O)c1ccc2nc(NC(=O)OC)[nH]c2c1 (stereo not drawn)
CCN(C(=O)CSc1nnc(-c2cc3occc3n2C)n1-c1ccccc1C)c1cccc(C)c1 -3.16%
COc1ccc(-c2cn3c(n2)sc2cc(C(=O)NCCCN4CCCCC4)ccc23)cc1 -6.13%
COc1ccc(N2CCN(C(=O)c3ccc4c(=O)n(CCc5ccc(OC)c(OC)c5)c(=O)[nH]c4c3)CC2)cc1 -49.7%
CCN(CC)C(=O)c1cnn(-c2ccc(F)cc2)c1-n1cccc1 -8.47%
CCc1ccc(CNC(=O)CSc2cc(=O)n(CC)c3ccccc23)cc1 -7.72%
CCNC(=O)c1c(C)oc2ncn(C)c(=O)c12 -21.1%
Cc1nn(CCCC(=O)Nc2cc(C(F)(F)F)ccc2Cl)c(=O)c2c1sc1ccccc12 -5.53%
CCc1nn(CC(=O)N(CC)Cc2ccccc2)c(=O)c2cc3occc3n12 -24.8%
CC(C)(Sc1ccc(CCN(CCCCC2CCCCC2)C(=O)NC2CCCCC2)cc1)C(=O)O -2.8%
CC1CCCCN1S(=O)(=O)c1cc2c(=O)nc3ccccn3c2cc1Cl (stereo not drawn) 13.7%
CCOc1ccc(C2C(C(=O)Nc3ccccc3OC)=C(C)Nc3c(C(=O)Nc4cccc(C)c4)cnn32)cc1 (stereo not drawn) -8.54%
O=C1CC(c2nnc(Cc3cccc(Cl)c3)o2)CN1c1ccccc1 (stereo not drawn) -22.5%
Cc1ccc2c(c1)cc1c(=O)n(Cc3ccc(Cl)cc3)nc(C)n12 -4.41%
COc1cccc(-c2cc(C(=O)Nc3ccc(Br)c(C)c3)[nH]n2)c1 12.4%
COc1ccc(-n2c(=O)c3ccc(C(=O)NCc4ccc(C)cc4)cc3n(Cc3cccc(Cl)c3)c2=O)cc1 -21%
COc1ccc(CN(Cc2ccco2)C(=O)c2ccccc2F)cc1 -13.6%
Cc1cccc(C)c1NS(=O)(=O)c1ccc2c(c1)[C@H]1C=CC[C@H]1[C@@H](c1ccc(Cl)cc1)N2 -20.2%
CCn1c(CC2C(=O)Nc3ccccc32)nc2ccccc2c1=O (stereo not drawn) -15.2%
O=C(Nc1cc(-c2nc3ccccc3o2)ccc1Cl)c1ccc(Br)o1 17.9%
Cc1c(C(=O)NCc2ccccc2)sc2nc[nH]c(=O)c12 6.81%
COc1cc(-c2noc(-c3ccc(N(C)C)c([N+](=O)[O-])c3)n2)cc(OC)c1OC -7.09%
Cc1ccc(CCNc2nc3c(S(=O)(=O)c4ccccc4)nnn3c3ccsc23)cc1 -13.6%
Cc1ccccc1Cn1c2ccccc2c2cnn(CC(=O)NCCCc3ccccc3)c(=O)c21 -13.3%
COc1cccc(Cc2nc3ccccc3nc2SCC(=O)N2CCN(c3ccccc3)CC2)c1 -23.9%
CSc1ccc2c(c1)N(CCC1CCCCN1C)c1ccccc1S2 (stereo not drawn) -28.4%
O=C(Cn1c(-c2cccs2)cc2cc(F)ccc21)N1CCN(c2cccc(Cl)c2)CC1 -17%
CC(=O)Nc1ccc(S(=O)(=O)NC2(C(F)(F)F)NC(=O)N(c3ccccc3F)C2=O)cc1 (stereo not drawn) 2.44% [at 11.5 µM, percent change from vehicle, -100% = no light]
CCC1CN(C(=O)Nc2cccc(OC)c2)c2ccccc2O1 (stereo not drawn) -23.9%
COc1ccc2c(c1)c1c(c(=O)n(-c3ccc(F)c(Cl)c3)c(=O)n1CC(N)=O)n2C -0.732%
CCOc1ccc(-c2c(C)nn3c(C)c(C(=O)NCCc4ccccc4)cnc23)cc1OCC -23.8%
COc1cccc2c1cc1c(=O)n(CC(=O)O)nc(C)n12 -4.26%
CCOc1ccc(Nc2sc(C(=O)c3ccc4c(c3)OCO4)c(N)c2S(=O)(=O)c2ccc(C)cc2)cc1 -16.5%
Cn1nc(C(=O)N2CCN(c3ccc(Cl)cc3)CC2)c2c1-c1ccccc1S(=O)(=O)C2 -25.2%
COc1ccc(-c2cc(C(F)(F)F)nc(NCc3ccc(Cl)cc3)n2)cc1 -22.5%
COc1ccccc1CNC(=O)CSc1cc(=O)n(C)c2ccccc12 27.3%
COc1ccc(CNC(=O)c2cnc(N3CCCC3)nc2C)c(OC)c1 1.62%
CCOC(=O)c1cnc2ccc(OC)cc2c1Nc1ccc(OCc2ccccc2Cl)cc1 -46.2%
Cc1ccc(NC(=O)CCC(=O)N2Cc3ccccc3Oc3ncccc32)cc1Cl -21.1%
COc1ccccc1CNC(=O)C(NS(=O)(=O)c1ccc2c(c1)CCN2C(C)=O)C(C)C (stereo not drawn) -24.9%
COc1ccc(-c2nc3sc(CCNC(=O)Cc4ccccc4)c(C)n3n2)cc1 10.5%
COc1ccc(C)cc1NC(=O)c1nnn(Cc2cccc(Br)c2)c1N -26.5%
COc1ccc(C2=NS(=O)(=O)N(C)C(C(=O)NC(C)c3ccccc3)=C2)cc1 (stereo not drawn) -15.3%
Cc1ccc2oc(C(=O)Nc3ccc(S(=O)(=O)N4CCCCC4C)cc3)cc(=O)c2c1 (stereo not drawn) -11.5%
CCN(CC)S(=O)(=O)c1ccc2c(c1)N(CC(=O)NCCCN1CCN(c3ccc(OC)cc3)CC1)C(=O)CO2 -7.87%
CCN(C(=O)CSc1nc2ccccc2n1CC(=O)N(C)C1CCCCC1)c1ccccc1 -25.8%
CCOC(=O)c1cc(-c2ccccc2)n(CCC(=O)NCCc2ccccc2)c1C -21.1%
CCc1ccc(C(=O)c2cn(CC(=O)Nc3cc(OC)ccc3OC)c3ccc(Cl)cc3c2=O)cc1 -13.6%
CCc1c(C)sc2c1CCN(Cc1ccccc1C#N)C2c1ccccc1 (stereo not drawn) -4.93%
CCOc1ccc(CNC(=O)C2CCN(c3nc4ccccc4nc3C(F)(F)F)CC2)cc1OC 11.2%
CC1CCN(c2oc(-c3cccs3)nc2S(=O)(=O)c2ccccc2)CC1 8.29% [at 11.5 µM, percent change from vehicle, -100% = no light]
CCOC(=O)c1cnc2c(ccc3ccccc32)c1Nc1cccc(Cl)c1 5.82%
COc1ccc(CCNC(=O)c2cnc3sc(N4CCOCC4)nn3c2=O)cc1 -0.89%
Cc1nn(C)c2c1c(-c1ccccc1)cc(=O)n2Cc1ccc(F)cc1 -13.9%
COc1ccc(-n2cc(-c3ccc4c(c3)OCO4)n(CC(=O)Nc3cc(Cl)ccc3C)c2=O)cc1 8.01%
COc1ccc(-n2nc3ccc(NC(=O)c4cccc(OCCC(C)C)c4)cc3n2)cc1 -27.6%
NC(N)=Nc1nc(CSCC/C(N)=N/S(N)(=O)=O)cs1 -5.08%
Cc1cc(OCC(=O)N2CCC(c3nc4ccccc4s3)CC2)ccc1Cl -28%
O=C(CSc1ncc(-c2ccccc2)[nH]1)Nc1cccc(Br)c1 1.19%
Cc1ccc(-c2nnn3c2nc(NC2CCC(C)CC2)c2ccccc23)cc1 (stereo not drawn) 0.5%
CCOCCc1nnc(NC(=O)C(=O)c2cc(C)n(-c3ccc(Cl)cc3)c2C)s1 1.23%
Cc1cc2n(n1)CCCN2C(=O)Nc1ccc(F)c(Cl)c1 -5.74%
COC(=O)CN1C(C(=O)c2ccccc2)=C(OC(=O)c2ccc(F)cc2)c2ccccc2S1(=O)=O -16.4%
Cc1ccc(S(=O)(=O)c2cnc(SCC(=O)Nc3ccc4c(c3)OCCO4)[nH]c2=O)cc1C -5.41%
COc1cccc(-n2c(C)nc3cc(C(=O)O)ccc32)c1 15.4%
COc1cc2nc(NC(=O)c3ccc(S(=O)(=O)N4CCc5ccccc54)cc3)sc2cc1OC -40.9%
COc1cccc(-c2nc3c(C#N)c[nH]n3c2NC2CCCC2)c1OC -7.92%
CC1CCCCN1C(=O)c1ccc2c(c1)N(Cc1ccc(F)cc1)C(=O)c1ccccc1S2(=O)=O (stereo not drawn) -26.9%
CCN(CCCNC(=O)c1cc2c(=O)n(CC)c3ccccc3c2s1)Cc1ccccc1 -7.64%
CCOC(=O)N1CCN(Cc2nc3cc(NC(=O)c4ccccc4Cl)ccc3n2C(C)C)CC1 -54.4%
CC(=O)N1CCc2c(sc3c2c(=O)n(-c2ccccc2Cl)c(=O)n3Cc2cccc(C)c2)C1 -50.9%
CC(=O)c1cccc(NC(=O)CCc2c(C)nc3nc(CN)nn3c2C)c1 -8.78%
COc1ccccc1NC(=O)CSc1cn(CC(=O)N2CCCC2)c2ccccc12 -10.1%
CCC1CCCCN1C(=O)CSc1nnc(-c2ccc(OC)c(OC)c2)o1 (stereo not drawn) -11.7%
CCOC(=O)c1ccc(NC(=O)N2CC3CCCN3c3ccccc32)cc1 (stereo not drawn) -27.2%
Cc1cc(-c2ccccc2)nnc1NCCN1CCOCC1 -7.39%
O=C(Cn1cc(S(=O)(=O)N2CCCC2)c(S(=O)(=O)N2CCCC2)c1)Nc1ccc(F)cc1 3.69%
CCC(=O)N1CCc2cc(S(=O)(=O)NCc3ccc(C)cc3)ccc21 -21.3%
CCOc1ccc(NC(=O)c2ccc(F)c(S(=O)(=O)N(Cc3ccc(C(=O)OC)cc3)Cc3ccc(OC)c(OC)c3)c2)cc1 -9.09%
CCOc1ccc(N2CC(C)Cn3c2nc2c3c(=O)n(Cc3c(F)cccc3Cl)c(=O)n2C)cc1 (stereo not drawn) -7.51%
O=C(Cn1cc(C(=O)c2ccco2)c2ccccc21)Nc1ccccc1 -21.2%
CN(C)c1ncc(C(=O)NCc2ccc(Cl)cc2)cn1 -10.4%
COc1ccc(Cl)cc1Nc1ccc2cc(S(=O)(=O)N3CCCCC3)ccc2n1 -24.2%
CCc1ccccc1NC(=O)CN(c1ccc(OC)cc1)S(=O)(=O)c1c(C)n[nH]c1C -28.2%
Cc1ccc(NC(=O)c2cc(S(=O)(=O)NCCC3=CCCCC3)ccc2F)cc1C -75.9%
Cc1cccc(-c2nc3scc(CCNS(=O)(=O)c4ccc(F)cc4C)n3n2)c1 -24.3%
Cc1ccn2c(c1)nc(=O)c1cc(S(=O)(=O)N3CCCCC3)c(Cl)cc12 -2.02%
COc1ccc(Nc2sc(C(=O)c3ccccc3)c(N)c2C(=O)Nc2cc(C)ccc2C)c(OC)c1 -27.3%
CCc1ccc(NC(=O)c2sc3nc(C)c(C(=O)Nc4ccc(C)cc4C)c(-c4ccco4)c3c2N)cc1 -13.5%
Cc1oc(-c2ccccc2)nc1CNC(=O)NC1CCCCC1 -14.8%
Cc1c(NC(=O)c2cc(-c3ccc(Br)cc3)on2)c(=O)n(-c2ccccc2)n1C 3.62%
Cc1ccc(S(=O)(=O)c2nnn3c2nc(N2CCC(C)CC2)c2cc(Cl)ccc23)cc1C -13.1%
